Results are given in words; binding and its absence hold for the method and conditions named. For some assays here: In cells and extracts the contact can be indirect. Some results given as binding are weak or reduced against the parent protein; the word gives no strength. Sequences can lack the tags named with a protein.
Columns and labels:
[1] = molecular target: T1, FLAG-tagged UBAC1 (human) (UniProt Q9BSL1); test: co-IP; HEK293T co-transfected with FLAG-UBAC1 and HA-tagged CARMA2 polypeptides, 24 h; lysis buffer 150 mM NaCl, 20 mM Hepes pH 7.4, 1% Triton X-100, 10% glycerol; anti-FLAG immunoprecipitation, immunoblot
T1 sequence: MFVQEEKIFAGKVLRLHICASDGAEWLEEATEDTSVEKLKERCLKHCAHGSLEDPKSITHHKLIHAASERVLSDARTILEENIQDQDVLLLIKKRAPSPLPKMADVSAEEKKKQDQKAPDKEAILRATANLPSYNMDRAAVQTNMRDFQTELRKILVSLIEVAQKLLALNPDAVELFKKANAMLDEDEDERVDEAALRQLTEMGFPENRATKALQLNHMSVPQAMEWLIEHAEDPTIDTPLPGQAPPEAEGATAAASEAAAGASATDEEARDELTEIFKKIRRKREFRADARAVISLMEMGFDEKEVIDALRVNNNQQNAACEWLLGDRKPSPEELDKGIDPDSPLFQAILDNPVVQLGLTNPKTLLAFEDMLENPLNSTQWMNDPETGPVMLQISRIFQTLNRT

[2] = molecular target: T2, GST-UBAC1 fusion protein (human) (UniProt Q9BSL1); test: pull-down; Sepharose-bound GST-UBAC1 (1.5 μg) or GST mixed with HaCaT cell lysates overnight at 4 °C; blot with anti-CARMA2; only the target purified
T2 sequence: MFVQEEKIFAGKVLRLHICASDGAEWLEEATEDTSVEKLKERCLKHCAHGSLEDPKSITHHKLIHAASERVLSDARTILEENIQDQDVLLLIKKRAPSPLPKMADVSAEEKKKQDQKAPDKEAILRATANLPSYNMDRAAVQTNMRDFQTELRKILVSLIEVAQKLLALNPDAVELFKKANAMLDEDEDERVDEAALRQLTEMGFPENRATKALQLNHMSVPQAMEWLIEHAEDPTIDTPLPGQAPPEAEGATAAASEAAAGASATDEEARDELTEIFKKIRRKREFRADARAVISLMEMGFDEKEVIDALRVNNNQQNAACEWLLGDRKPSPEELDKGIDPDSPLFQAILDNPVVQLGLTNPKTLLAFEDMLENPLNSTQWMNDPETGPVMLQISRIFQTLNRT

[3] = molecular target: CARMA2sh fused to the DNA binding domain of transcription factor GAL4 (human) (UniProt Q9BXL6); test: two-hybrid; individual plasmid transformations in yeast AH109; growth on selective media, ten independent transformants; + growth within 36 h, - no growth within 5 days
[4] = molecular target: CARMA2sh fused to the DNA binding domain of transcription factor GAL4 (human) (UniProt Q9BXL6); test: two-hybrid; library screen: GAL4DBD-CARMA2sh bait (pGBKT7) against a human peripheral blood leucocyte cDNA library in pACT2, yeast AH109; selective growth and β-galactosidase reporter
TANK = molecular target: T3, TANK (UniProt Q92844); test: co-IP; HEK293 cells transfected with TANK and UBAC1, 24 h; lysates immunoprecipitated with anti-HA antibody, immunoblot
T3 sequence: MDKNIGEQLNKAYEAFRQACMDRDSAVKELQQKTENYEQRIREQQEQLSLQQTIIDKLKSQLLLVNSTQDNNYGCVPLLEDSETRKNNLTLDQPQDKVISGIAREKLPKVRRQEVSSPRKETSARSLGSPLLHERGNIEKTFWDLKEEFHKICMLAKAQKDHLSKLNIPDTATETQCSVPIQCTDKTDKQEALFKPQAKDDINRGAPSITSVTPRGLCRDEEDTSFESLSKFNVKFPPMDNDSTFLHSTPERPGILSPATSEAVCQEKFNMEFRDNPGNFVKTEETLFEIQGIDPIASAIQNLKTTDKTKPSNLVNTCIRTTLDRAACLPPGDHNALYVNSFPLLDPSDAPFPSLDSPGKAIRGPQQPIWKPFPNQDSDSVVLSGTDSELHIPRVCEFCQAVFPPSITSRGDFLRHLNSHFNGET

For “CARMA2CARD (CARD domain, CARMA2sh 1-123), HA-tagged (from UniProt Q9BXL6-2 1-123) (domain or fragment)”, the binding [1] was “no binding”.

“CARMA2PDZ (PDZ domain, CARMA2sh 550-690), HA-tagged (from UniProt Q9BXL6-2 550-690) (domain or fragment)” was tested, and the binding [1] was “binds”.

With “CARMA2cl, alternatively spliced isoform, HA-tagged (from UniProt Q9BXL6-3 1-434)” the binding [1] was “binds”.

With “CARMA2shE138A, HA-tagged (from UniProt Q9BXL6-2 1-740)” the binding [1] was “binds”.

For “CARMA2shE142G, HA-tagged (from UniProt Q9BXL6-2 1-740)”, the binding [1] was “binds”.

With “HA-tagged CARMA2sh (from UniProt Q9BXL6-2 1-740)” the binding [1] was “binds”.

“endogenous CARMA2sh (from UniProt Q9BXL6-2 1-740)” was tested, and the binding [2] was “binds”.

B1: UBAC1/KPC2 (amino acids 99-404) fused to the transcription activation domain of GAL4 (domain or fragment, UniProt Q9BSL1 99-404)
chain: PLPKMADVSAEEKKKQDQKAPDKEAILRATANLPSYNMDRAAVQTNMRDFQTELRKILVSLIEVAQKLLALNPDAVELFKKANAMLDEDEDERVDEAALRQLTEMGFPENRATKALQLNHMSVPQAMEWLIEHAEDPTIDTPLPGQAPPEAEGATAAASEAAAGASATDEEARDELTEIFKKIRRKREFRADARAVISLMEMGFDEKEVIDALRVNNNQQNAACEWLLGDRKPSPEELDKGIDPDSPLFQAILDNPVVQLGLTNPKTLLAFEDMLENPLNSTQWMNDPETGPVMLQISRIFQTLNR
In the case of B1, the binding [3] is reported as “binds” and the binding [4] is reported as “binds”.

B2: FLAG-tagged UBAC1 (protein, UniProt Q9BSL1 1-405)
chain: MFVQEEKIFAGKVLRLHICASDGAEWLEEATEDTSVEKLKERCLKHCAHGSLEDPKSITHHKLIHAASERVLSDARTILEENIQDQDVLLLIKKRAPSPLPKMADVSAEEKKKQDQKAPDKEAILRATANLPSYNMDRAAVQTNMRDFQTELRKILVSLIEVAQKLLALNPDAVELFKKANAMLDEDEDERVDEAALRQLTEMGFPENRATKALQLNHMSVPQAMEWLIEHAEDPTIDTPLPGQAPPEAEGATAAASEAAAGASATDEEARDELTEIFKKIRRKREFRADARAVISLMEMGFDEKEVIDALRVNNNQQNAACEWLLGDRKPSPEELDKGIDPDSPLFQAILDNPVVQLGLTNPKTLLAFEDMLENPLNSTQWMNDPETGPVMLQISRIFQTLNRT
For B2, the binding (TANK) was “binds”.

B3: CARMA2CCL (coiled coil, CARMA2sh 123-550), HA-tagged (domain or fragment, UniProt Q9BXL6-2 123-550)
chain: KLTECLAGAIGSLQEELNQEKGQKEVLLRRCQQLQEHLGLAETRAEGLHQLEADHSRMKREVSAHFHEVLRLKDEMLSLSLHYSNALQEKELAASRCRSLQEELYLLKQELQRANMVSSCELELQEQSLRTASDQESGDEELNRLKEENEKLRSLTFSLAEKDILEQSLDEARGSRQELVERIHSLRERAVAAERQREQYWEEKEQTLLQFQKSKMACQLYREKVNALQAQVCELQKERDQAYSARDSAQREISQSLVEKDSLRRQVFELTDQVCELRTQLRQLQAEPPGVLKQEARTREPCPREKQRLVRMHAICPRDDSDCSLVSSTESQLLSDLSATSSRELVDSFRSSSPAPPSQQSLYKRVAEDFGEEPWSFSSCLEIPEGDPGALPGAKAGDPHLDYELLDTADLPQLESSLQPVSPGRLDV
For B3, the binding [1] was “binds”.
